# Assay results: PubChem BioAssay AID1030 (National Center for Advancing Translational Sciences (NCATS), 2008)
# The campaign covered roughly 220,000 compounds. About 16,000 (7.3%) were called active. The inconclusive results got no clear call from the source; some entries with a clear call stand among them for comparison. Calls follow the shape of the dose curve; as a rule, active = well fitted inhibition curve with a large enough effect (not every such curve was filed as active); inconclusive = small, poorly fitted or top-dose-only effect, or another doubt; inactive = no such curve, though single readings can be large or run the other way. Potencies of inconclusive entries are left out as doubtful fits.
# Biological target: Aldehyde dehydrogenase 1A1 (Homo sapiens) (UniProt P00352)
# Chain of UniProt P00352 (P00352 whole entry, looked up): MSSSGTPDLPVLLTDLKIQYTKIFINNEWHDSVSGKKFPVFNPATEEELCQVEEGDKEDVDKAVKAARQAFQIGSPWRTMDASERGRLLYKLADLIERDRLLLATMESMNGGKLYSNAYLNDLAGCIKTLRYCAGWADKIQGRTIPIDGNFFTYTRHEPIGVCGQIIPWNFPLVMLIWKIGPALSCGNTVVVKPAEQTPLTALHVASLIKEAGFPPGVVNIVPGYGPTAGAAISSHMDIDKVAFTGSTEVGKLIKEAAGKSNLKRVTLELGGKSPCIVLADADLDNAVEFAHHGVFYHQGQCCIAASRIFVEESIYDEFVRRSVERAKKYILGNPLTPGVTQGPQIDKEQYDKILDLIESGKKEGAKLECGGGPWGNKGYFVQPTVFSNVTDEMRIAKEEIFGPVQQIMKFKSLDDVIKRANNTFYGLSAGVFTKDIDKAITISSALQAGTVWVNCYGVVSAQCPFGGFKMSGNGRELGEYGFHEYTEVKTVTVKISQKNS
# Assay: qHTS Assay for Inhibitors of Aldehyde Dehydrogenase 1 (ALDH1A1);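 as to activity, negative = inhibition: plate controls were no enzyme wells and a reference inhibitor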
# Conditions: Purified ALDH1A1, NADH fluorescence, propionaldehyde substrate; series mostly up to 75.3 µM; activity, negative = inhibition: at the top concentration
# Potency is read from the fitted curve at half-maximal effect; tags tell the direction and shape of the fitted curve.
SMILES,Potency,"activity, negative = inhibition"
COc1ccc(C(=O)NNC(=O)Cc2ccc([N+](=O)[O-])cc2)cc1,"inconclusive [inhibitor, single point]",
COc1cc(N/C(=N/S(=O)(=O)c2ccccc2)c2ccccc2)ncn1,"inconclusive [inhibitor, partial curve]",
CCc1ccc(N2C(=O)CN(Cc3sccc3C)C2=S)cc1,,inactive: -3.36%
CCCc1c(C)nn(C(=O)/C(C#N)=N/Nc2ccccc2[N+](=O)[O-])c1C,"inconclusive [inhibitor, single point]",
O=C1c2ccccc2C(=O)N1CCCSc1ccccc1,,inactive: -6.74% [at 13.5 µM]
COC(=O)c1ccc(COc2ccccc2/C=C(\C#N)C(=O)Nc2ccc(C)cc2)cc1,,inactive: 6.88%
Cc1nn(CC(=O)Nc2ccc3c(c2)nc2n3CCOC2)c(=O)c2ccccc12,"inconclusive [inhibitor, single point]",
Cc1cccc(OCc2n[nH]c(=S)n2-c2ccccc2)c1,,inactive: 6.43%
CCCCCC(=O)Nc1sc(C)c(C)c1C#N,active: 10 µM,
O=c1cnc2cnc(N3CCNCC3)nc2n1C1CC1,"inconclusive [inhibitor, partial curve]",
COc1ccc(C2=CC(=O)OC(C)(c3ccccc3)O2)cc1 (centres undefined),,inactive: -15.9%
Cc1nn(Cc2c(Cl)cccc2Cl)c(C)c1C(=O)NCc1ccc(C)n1C,"inconclusive [inhibitor, single point]",
C=CCc1cccc(OC)c1OCCOCCn1ccnc1,active: 20 µM,
CC(C)CN(CC(C)C)C(=O)CS(=O)(=O)Cc1ccccc1,"inconclusive [inhibitor, single point]",
CCN(CC(=O)Nc1c(F)cccc1F)C(=O)Cc1ccccc1,,inactive: -0.0816%
CCOC(=O)Cc1csc(/N=C/c2c(O)n(-c3ccc(C)cc3C)c(=O)c3ccccc23)n1,"inconclusive [inhibitor, single point]",
CC(NC(=O)Cn1nc(C(=O)O)c2ccccc2c1=O)c1ccccc1 (centres undefined),,inactive: 5.42%
O=C(c1cc(-c2ccco2)on1)N1CCOCC1,"inconclusive [inhibitor, single point]",
Cc1c(C(=O)Nc2ccncc2)sc2nc(-c3ccccc3)cn12,"inconclusive [inhibitor, single point]",
CCCCn1c(=O)cc(O)c2ccccc21,"inconclusive [inhibitor, single point]",
COc1cccc(NC(=S)N(CCc2ccc(OC)c(OC)c2)Cc2ccccn2)c1,"inconclusive [inhibitor, single point]",
S=C(Nc1ccccc1Cl)NC1CCN(Cc2ccccc2)CC1,"inconclusive [inhibitor, single point]",
CN(C)c1ccc(-c2nc(NCc3cccnc3)c3ccccc3n2)cc1,"inconclusive [inhibitor, partial curve]",
Nc1ccc(N2CCN(c3ccccc3)CC2)c(F)c1,"inconclusive [inhibitor, single point]",
O=C(Oc1c(-c2ccccc2)oc2ccccc2c1=O)c1ccccc1,"inconclusive [inhibitor, partial curve]",

SMILES,Potency,"activity, negative = inhibition"
CC1CCc2nn(CC(=O)NC3CCCC(C)C3C)cc2C1 (centres undefined),,inactive: 2.26%
COc1cc(C(=O)NC2=C(C#N)CCC2)cc(OC)c1OC,"inconclusive [inhibitor, single point]",
CCN1CCN(c2cc(C)c3cc(NC(=S)N4CCCC(C)C4)ccc3n2)CC1 (centres undefined),"inconclusive [inhibitor, single point]",
C=CCn1c(SCC(=O)O)nnc1-c1ccc(C(C)(C)C)cc1,"inconclusive [inhibitor, single point]",
CCCCCCCC/C=C\CCCCCCCC(=O)NCCc1ccc(O)c(O)c1,inactive,
COc1ccc(C)cc1NC(=O)C(OC(=O)c1cccc(S(=O)(=O)N(C)c2ccccc2)c1)c1ccccc1 (centres undefined),"inconclusive [inhibitor, partial curve, poor fit]",
CCOC(=O)N1CCN(S(=O)(=O)c2ccc(C(=O)Nc3nc4c(s3)CC(C)CC4)cc2)CC1 (centres undefined),"inconclusive [inhibitor, single point]",
Nn1c(=S)[nH]nc(Cc2ccc(O)cc2)c1=O,"inconclusive [inhibitor, single point]",
N#CCSc1nnc(-c2ccccc2O)n1CCc1ccccc1,,inactive: 5.9%
CCOC(=O)N1CCC(NC(=O)CCC(=O)N2CCOc3ccccc32)CC1,"inconclusive [inhibitor, partial curve]",
COc1ccc(C(=O)Nc2ccccc2N2CCCCC2)cc1[N+](=O)[O-],"inconclusive [inhibitor, full curve]",
N#Cc1c(NC(=O)C2CC=CCC2C(=O)O)sc2c1CCCCCC2 (centres undefined),"inconclusive [inhibitor, single point]",
COC(=O)CC1C(=O)NCCN1C(=O)CSc1nc2ccccc2s1 (centres undefined),active: 17.8 µM,
c1ccc(-c2nnc(-c3ccco3)o2)cc1,"inconclusive [inhibitor, partial curve]",
C=CCn1c(SCc2ccc(C(=O)Nc3nccs3)cc2)nnc1-c1ccc(C)c(Cl)c1,"inconclusive [inhibitor, single point]",
CCOC(=O)c1[nH]c2ccc(OC)cc2c1NC(=S)N1CCN(c2ccccc2)CC1,active: 25.1 µM,
CC(=O)c1c(C)[nH]c(C(=O)OCCOc2ccccc2)c1C,,inactive: 0.727%
COc1ccc2[nH]c3c(N4CCN(Cc5ccc6c(c5)OCO6)CC4)ncnc3c2c1,"inconclusive [inhibitor, partial curve]",
Cc1ccc(/C=C/C(=O)Nc2ccccc2C(N)=O)cc1,,inactive: -0.883%
CCc1ccc2c(c1)C(C)=CC(C)(C)N2,"inconclusive [inhibitor, partial curve]",
CCCS(=O)(=O)N1CCC(C(=O)NC2CCC(C)CC2)CC1 (centres undefined),active: 12.6 µM,
CCCCn1c(=O)c(CCC(=O)OCC(=O)NCc2ccc(OC)c(OC)c2)nc2ccccc21,,inactive: -5.31%
Cc1ccc(NC(=S)NNC(=O)Nc2ccccc2)cc1,active: 2.24 µM,
Cc1sc2nc(CC(=O)N3CCCC3)[nH]c(=O)c2c1C,"inconclusive [inhibitor, single point]",
COc1nn(CC(=O)N2N=C(C(F)F)CC2(O)C(F)F)cc1[N+](=O)[O-] (centres undefined),,inactive: 6.16%

SMILES,Potency,"activity, negative = inhibition"
COc1ccc(C(=O)NCCN2CCOCC2)c(OC)c1OC,,inactive: 12.2%
COc1ccc(-c2nc3ccccc3s2)cc1O,"inconclusive [inhibitor, partial curve]",
O=C1c2ccccc2C(Nc2ccc3c(c2)OCCO3)N1Cc1ccc2c(c1)OCO2 (centres undefined),"inconclusive [inhibitor, partial curve]",
COC(=O)c1ccccc1S(=O)c1snnc1C (centres undefined),,inactive: 0.514%
COc1cccc(C(=O)CN2C(=O)C(C)(C)Oc3ccc(C(=O)N4CCCCCC4)cc32)c1,"inconclusive [inhibitor, partial curve]",
CC1CN(c2nc3c(c(=O)n(C)c(=O)n3C)n2Cc2c(F)cccc2Cl)CC(C)O1 (centres undefined),,inactive: 5.68%
Cc1ccc(CCNC(=O)CN2C(=O)COc3ccccc32)cc1,"inconclusive [inhibitor, single point]",
CN(C)c1ccc(CN(C(=O)c2ccco2)C2CCS(=O)(=O)C2)cc1 (centres undefined),active: 7.08 µM,
COc1ccc(S(=O)(=O)NCCc2ccc(F)cc2)cc1,"inconclusive [inhibitor, partial curve]",
CCC(CC)=NNc1cccc([N+](=O)[O-])c1,active: 28.2 µM,
Cc1cc(C(=O)OCC(=O)N2CC(C)OC(C)C2)ccc1[N+](=O)[O-] (centres undefined),"inconclusive [inhibitor, single point]",
O=C(N/N=C\c1ccc(F)cc1)c1csnn1,,inactive: 4.31%
CN(Cc1ccco1)c1cc(-c2ccc3c(c2)OCO3)ncn1,"inconclusive [inhibitor, partial curve]",
Cc1cc(C)n(Cc2cccc(F)c2)c(=O)c1C#N,"inconclusive [inhibitor, single point]",
COc1ccc(S(=O)(=O)Nc2ccccc2OC)cc1NC(=O)CC1CC2CCC1C2 (centres undefined),"inconclusive [inhibitor, single point]",
COc1ccc(-n2c(Cc3cccn3C)nnc2SCC(=O)Nc2ccccc2F)cc1,active: 15.8 µM,
COCCCN1C(=O)c2ccc(C(=O)OCC(=O)N(C)c3ccccc3)cc2C1=O,"inconclusive [inhibitor, partial curve]",
Cc1nc2ncnn2c(C)c1CCC(=O)Nc1ccc(S(=O)(=O)N2CCCCCC2)cc1,active: 6.31 µM,
CCOc1cc(CNC2CCCC2)c(Cl)cc1OCC(=O)Nc1ccccc1,,inactive: -6.63%
C/C(Cn1nnc([N+](=O)[O-])n1)=N\NC(=O)c1ccc(O)cc1O,"inconclusive [inhibitor, single point]",
Cc1cccc(C2=NN(c3ccccc3)[C@@H](C(=O)N3CCOC3=O)[C@@H]2c2ccc(F)cc2)c1,"inconclusive [inhibitor, partial curve]",
O=C(CN1C(=O)C2C3C=CC(C3)C2C1=O)N1CC=C(c2ccccc2)CC1 (centres undefined),,inactive: -10.6%
CS(=O)(=O)N(Cc1ccco1)CC(O)Cn1cc(C=O)c2ccccc21 (centres undefined),active: 1.26 µM,
C[C@]1(c2ccccc2)O[C@@H]2C[C@@H]3[C@@H]4CCC5=CC(=O)C=C[C@@]5(C)[C@]4(F)[C@H](O)C[C@]3(C)[C@@]2(C(=O)CO)O1,,inactive: 11.7% [at 13.5 µM]
